Drawing on PubChem BioAssay AID1346428 (National Center for Advancing Translational Sciences (NCATS), 2018), this text covers activation for 53 molecules.

Several values for one entry are separate records, joined by “and”; a condition that tells them apart may be missing. Identical values can stand only once. Among all 48,000 compounds or so, about 1,200 (2.5%) were called active. Inconclusive results (about 2%) are left out.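 The calls were made as follows: active = activation of at least 60% and not above a set upper limit (about 1 call in 100 departs from these limits); inconclusive = activation of 40% to 60%, or above that upper limit; inactive = activation under 40%.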 This is one part of the list.

For this assay, the target named is Probable G-protein coupled receptor 32 (Homo sapiens) (UniProt O75388). Put plainly: qHTS for Agonists of Human Resolvin D1 Receptor DRV1. The settings on record: CHO-K1 GPR32 beta-arrestin PathHunter luminescence, 90 min; at 76.9 µM; active compounds read high; zero percent set by DMSO-only wells. In outline: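 PathHunter enzyme-fragment complementation, CHO-K1 GPR32 stable line; 2,500 cells/well, overnight attach; cpd 90 min 37 °C 5% CO2; detection reagent 1 h RT; chemiluminescence. DMSO = EC0.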
UniProt O75388, sequence (O75388 whole entry, looked up, the tested form may be a part): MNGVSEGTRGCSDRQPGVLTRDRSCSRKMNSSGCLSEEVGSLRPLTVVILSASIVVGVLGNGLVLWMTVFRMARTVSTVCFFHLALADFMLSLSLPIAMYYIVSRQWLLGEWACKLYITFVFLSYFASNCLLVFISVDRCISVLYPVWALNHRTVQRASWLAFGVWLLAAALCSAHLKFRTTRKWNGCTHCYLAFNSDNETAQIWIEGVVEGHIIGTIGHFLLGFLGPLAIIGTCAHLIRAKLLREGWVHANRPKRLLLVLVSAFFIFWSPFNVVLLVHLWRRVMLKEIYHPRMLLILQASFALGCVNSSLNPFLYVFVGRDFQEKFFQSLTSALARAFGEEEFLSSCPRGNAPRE
(In general: In qHTS, concentration-response curves come from the screen itself.)
With `CCc1ccc(-n2c(Cc3ccccc3)nnc2SCc2nc(-c3cccs3)no2)cc1`, the activation is inactive: -23.7%. For the molecule `Cc1ccc(C)n1-c1nnc(N2CCCC(C(=O)NCc3cccc(Cl)c3)C2)s1` (stereo not drawn), the activation is inactive: -28.5%. For `Cc1nc2ccn(Cc3cccs3)c(=O)c2cc1C(=O)Nc1ccccc1`, the activation is inactive: -17.9%. In the case of `CCn1cc(S(=O)(=O)c2cccc(Cl)c2)c(=O)c2cc(F)c(N3CCN(c4ccccc4)CC3)cc21`, the activation was inactive: -12.6%.

As to `CC(C)C(=O)Nc1ccc([N+](=O)[O-])c(C(F)(F)F)c1`, the activation is inactive: -28.6% and inactive: 2.72%.

For the molecule `Cc1ccc(/C=C/c2onc(C)c2S(=O)(=O)N2CCC(C(=O)NCC(C)c3ccccc3)CC2)cc1` (stereo not drawn), the activation was inactive: 3.63%. In the case of `CC1=C(C(=O)NCc2ccc(Cl)cc2)C2(CCCCC2)OC1=O`, the activation is inactive: -13.4%. The result for `O=C(NCCc1ccccc1)c1cc(Sc2cccc(Cl)c2)nc2ccccc12` reads inactive: 8.56%; that for `Cc1ccc(Cl)cc1N1CCN(S(=O)(=O)c2ccc3c(c2)CCCN3C(=O)C2CCC2)CC1`, inactive: -9.33%; that for `CCCCCn1c(-c2ccc(OC)c(OC)c2)nc2ccccc21`, inactive: 9.23%. Regarding `COc1ccc(NS(=O)(=O)c2ccc3[nH]c4c(c3c2)CCCC4)cc1Cl`, the activation was active: 89.6%. For the molecule `Cc1ccc(CN2C(=O)c3oc4ccc(C)cc4c(=O)c3C2c2ccc(O)cc2)cc1` (stereo not drawn), the activation is inactive: -4.06%.

In the case of `COc1cc(OC)c(NC(=O)Cn2c(=O)oc3cc(S(=O)(=O)N4CCCC4)ccc32)cc1Cl`, the activation was inactive: 26.2%. `CCN(CC)C(=O)Cn1cc(SCC(=O)Nc2ccccc2C)c2ccccc21`: the activation is inactive: -16.4%. Turning to `CC(=O)Oc1cc2c(s1)CCN(C(C(=O)C1CC1)c1ccccc1F)C2` (stereo not drawn), the activation was inactive: -10.8%. As for `CCc1ccc(-n2c(=O)c3cccnc3n2CC(=O)Nc2cc(F)ccc2F)cc1`, the figure is inactive: -24.2%. On to `CCOC(=O)N1CCc2c(sc(NCc3cc(OC)c(OC)cc3OC)c2C(=O)Nc2ccc(OCC)cc2)C1`, for which the activation was inactive: -5.92%. As for `CCN1CCN(c2ncc3c(n2)CCN(Cc2ccc(OC(C)C)cc2)C3)CC1`, the activation is inactive: -19.4%. Regarding `CC(O)CCCCn1c(=O)c2c(ncn2C)n(C)c1=O` (stereo not drawn), the activation was inactive: -1.67%. As for `CCOC(=O)c1ccc(-c2ccc(/C=C(\C#N)C(=O)Nc3ccc(OCC)cc3)o2)cc1`, the activation was inactive: -11.5%. The result for `CCOC(=O)c1cccc(NC(=O)NCc2ccc3c(c2)CCN3C(=O)c2ccccc2)c1` reads inactive: -15.7%; that for `Cc1cccc(-c2nc(SCCCOc3ccc(Cl)c(C)c3)n3[nH]c(=O)cc3n2)c1`, inactive: -41.3%. Consider `CCc1ccccc1NC(=O)C(=O)NCC(c1cccnc1)N1CCN(c2ccccc2F)CC1` (stereo not drawn), for which the activation was inactive: -7.08%. For the molecule `COC(=O)c1nnn(-c2cccc(C)c2)c1C(=O)OC`, the activation is inactive: 1.74%.

In the case of `COc1ccc(C2(CNC(=O)C(=O)Nc3ccc(F)cc3)CCCC2)cc1OC`, the activation is inactive: -3.18%. Take `COc1ccc(Cl)cc1-n1nnc(-c2nsc(NC(=O)c3ccccc3Cl)n2)c1C`: the activation was inactive: 3.38%. Regarding `Cc1ccc(NC(=O)C2CCC(CNS(=O)(=O)c3csc(C(N)=O)c3)CC2)cc1Cl` (stereo not drawn), the activation was inactive: 2.24%. As for `CCCSc1nc2sc3c(c2c(=O)n1Cc1ccccc1)CC(C)(CC)OC3` (stereo not drawn), the figure is inactive: -20.4%; as for `Cc1ccc(NS(=O)(=O)c2ccc3c(c2)CCCN3C(=O)C2CCC2)c(C)c1`, inactive: -17.7%; as for `CCc1nn(Cc2cc(C)ccc2C)c(=O)c2cc3cc(C)ccc3n12`, inactive: -11.1%. The result for `CCOC(=O)c1c(S(=O)(=O)NCC(=O)Nc2cc(C)ccc2C)c(C)n(C)c1C` reads inactive: -5.11%; that for `CCc1nn2c(=O)cc(COC(=O)c3ccco3)nc2s1`, inactive: -45.8%; that for `COc1ccc(N2CC(NC(=O)c3ccc(Br)o3)CC2=O)cc1` (stereo not drawn), inactive: -5.23%.

Regarding `COc1ccc(N2CCN(C(=O)c3cc4c(s3)-c3ccccc3OC4)CC2)cc1`, the activation is inactive: -2.52%. As for `CCOC(=O)C1CCN(S(=O)(=O)c2csc(C(N)=O)c2)CC1`, the figure is inactive: 3.95%; as for `Cc1ccc(-c2cn3c(n2)sc2cc(C(=O)NC(C)C45CC6CC(CC(C6)C4)C5)ccc23)cc1` (stereo not drawn), inactive: 1.47%. As for `COc1ccc(CCCc2nnc(SCC(=O)Nc3ccc(OC)cc3)o2)cc1`, the activation was inactive: -17.3%. For the molecule `O=C(CSc1nnc(NC(=O)Nc2ccccc2)s1)Nc1cccc(F)c1`, the activation is inactive: 32.6%. The result for `Cc1ccc2c(=O)c(C(=O)c3cccc(Cl)c3)cn(CC(=O)Nc3ccc4c(c3)OCCO4)c2n1` reads inactive: -3.88%; that for `Cn1cc(S(=O)(=O)c2cccc(Cl)c2)c(=O)c2cc(F)c(N3CCN(c4ccccc4)CC3)cc21`, inactive: -11%. In the case of `O=C(Nc1cc(F)ccc1F)N1CCC(CN2CCCC2)CC1`, the activation was inactive: -16.7%.

On to `CN(C)[C@@H]1C(=O)C(C(N)=O)=C(O)[C@@]2(O)C(=O)C3=C(O)c4c(O)ccc(Cl)c4[C@@H](O)[C@H]3C[C@@H]12`, for which the activation is inactive: -17.1% and inactive: -45%. As for `CN1C(=O)Cc2cc(S(=O)(=O)CCC(=O)Nc3ccc(F)c(Cl)c3)ccc21`, the activation is inactive: 0%. As for `COc1ccc2c(c1)CCCC2=O`, the figure is inactive: 14.1%; as for `Cc1ccc(NC(=O)C(C)Sc2nc(=O)cc(N)n2-c2ccccc2)cc1` (stereo not drawn), inactive: -3.38%; as for `CCOC(=O)c1cccc(NC(=O)CCn2nc(C)c(S(=O)(=O)N3CCCCC3)c2C)c1`, inactive: -13.8%. In the case of `CCCC(=O)Nc1ccc(-c2nc3ncccc3o2)cc1C`, the activation was inactive: 17.1%. In the case of `CCOc1ccc(NC(=O)CN2CCCN(Cc3cc(C)ccc3C)S2(=O)=O)cc1`, the activation is inactive: -7.51%. `CCOC(=O)c1ccccc1NC(=O)N1CCC(CN2CCCCC2)CC1`: the activation is inactive: 4.8%. As for `CCCc1nn2c(=O)cc(COC(=O)c3ccccc3NC(=O)c3ccc(Cl)cc3)nc2s1`, the figure is inactive: -18.1%; as for `COc1cc(C2c3c(-c4cc(C)ccc4O)n[nH]c3C(=O)N2CCCO)ccc1OCCC(C)C` (stereo not drawn), active: 102%; as for `CCc1ccccc1Nc1cc(C(=O)NC(C)c2ccccc2)c2ccccc2n1` (stereo not drawn), inactive: -32.3%. Turning to `CCOc1ccc(NC(=O)C2CCN(c3nnc(-n4c(C)ccc4C)s3)CC2)cc1`, the activation was inactive: -11.2%.
